The values that follow come from the supplement of paper PMC10126150.

Sequences with one replicate were seen in a single cluster, so their values are uncertain.

The subject of this data set is ATP. The data set can be described thus: switch fluorescence ratio, 500 uM ATP over buffer (Cy3 cluster intensity, sum of 5 cycles each) (fold (ratio)); higher = stronger signal-on switching upon ATP binding; sequences stand for … in TCGTCGGCAGCGTCAGATGTGTATAAGAGACAGTTTTTTTTTTTTTTTTTTTTTTTTT…TC. The note with it: aptamer strand: ATP DNA aptamer (quencher-CACCTGGGGGAGTATTGCGGAGGAAGG + anchor), 100 nM annealed; ATP concentration: 500 uM; one replicate. The procedure, abridged:
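The fluorescence ratio divides summed target-cycle Cy3 intensity by summed buffer-cycle Cy3 intensity for each cluster and is averaged per switch-domain sequence. Cy3-labelled switching-strand clusters on a modified Illumina MiSeq flow-cell were annealed to 100 nM quencher-labelled ATP aptamer, then imaged in selection buffer and again after 15 min with 500 uM ATP at 22 °C. Five such cycles were run, with NaOH stripping and re-annealing between them, and clusters outside 100-1000 RFU were excluded.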
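Also: ATP exposure 15 min at 22 °C before imaging.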

Turning to GCATCACCGC, the switch fluorescence ratio is 1.15.
For ACGGCAAAGA the value was 1.04.
Then TTTCCGCATA, with 2.76; and AGAGGGGAAA, with 1.
In the case of CAAATAATA, the switch fluorescence ratio worked out at 0.984.
Then CTGGTAGTGT, with 1.04; and TCGTTAGGTC, with 0.955; and AACGGTAGTA, with 1.03.
Regarding GCTCATGCGG, the switch fluorescence ratio came to 0.989.
Then TTCTAGGAAC, with 1.02; and AGGGCAG, with 1.04; and TCCGCCATA, with 1.21.
For GTTCGGTAA the value was 1.12; for CTCAGCGCAC, 3.08; for CAACAGACTT, 1.02.
For TTCTTGTTTG the value was 0.957; for TAGACATTAC, 1.41; for AAAATGCAAT, 1.19.
Turning to TGAAGAC, the switch fluorescence ratio was determined as 1.14.
For TTTTGGAGCT the value was 1.01; for TAGCGGGTC, 1.05.
In the case of AAGATGCTGG, the switch fluorescence ratio was found to be 1.04.
For CACGGCTGAC the value was 1.4.
For GGAGAAATT the value was 1.02.
Then TACGTGGAAT, with 1; and AACGCGCCCG, with 1.07; and GGTTATTTGG, with 0.983.
In the case of GTCTTAAAGG, the switch fluorescence ratio stood at 0.995.
Then GCTTGACGGA, with 0.987; and GGATGCTAAA, with 1.02; and CCATTGACT, with 1.06.
For AAAGGGACGA the value was 1.06; for GCATTGCCTT, 0.978.
For GTATGTACGA the value was 0.999; for AGCCTTTTT, 1.03; for ATCATGATTA, 1.02.
For TCTTCGATCG, the switch fluorescence ratio turned out to be 0.977.
Then TTACACGACC, with 1.38; and ACGCTCTGGT, with 1.28.
Then TTTCGAGATC, with 1; and AGGGAATCTA, with 1.03.
Turning to ATCTATTGGT, the switch fluorescence ratio was 0.998.
Then TGCTGAGTCT, with 0.986; and GTTTATTCG, with 1.04.
GTACCGTCGC: the switch fluorescence ratio stood at 1.05.
For CGCGTGTTTT, the switch fluorescence ratio was determined as 1.05.
Then ACCCCGTTCT, with 1.04.
As to TTGGCATTA, the switch fluorescence ratio stood at 1.01.
With TGTAAGACTG, the switch fluorescence ratio stood at 1.22.
In the case of TGGACTGATG, the switch fluorescence ratio was 0.943.
For TTAAATTCAA the value was 0.951; for ACACCTCGAT, 1.04.
Consider TATATACCTC, for which the switch fluorescence ratio worked out at 1.02.
For TAAGATTACT the value was 0.999; for ATGCTAAATT, 1.03.
Then ATGGCTTTGG, with 0.951; and ATGTATAAGC, with 0.997.
Regarding TTATCAATCG, the switch fluorescence ratio came to 1.02.
Then ATTCTTACGG, with 0.962; and GAGAACAATT, with 0.96; and CGGTGGCCC, with 0.98.
Consider TCATAGGTTA, for which the switch fluorescence ratio turned out to be 0.989.
For GTGGAGAGAT the value was 0.999; for TGAACCGGT, 1.04.
Then CCGCGTCCAA, with 2.5; and AATATCGACG, with 1.03; and AGAGCTTAAT, with 0.984.
Turning to ATGGGCTCTC, the switch fluorescence ratio was 0.994.
Then CAAGATCCCA, with 1.03; and GAAATTGGAC, with 1.06.
For AGGATTTAG the value was 1.03; for TCTATTGAGG, 1.01.
As to ACCGAGTTC, the switch fluorescence ratio came to 1.05.
Then GATTAACTCG, with 1.01.
Then AAGATCCATT, with 0.985; and CGCGGTATGA, with 0.981.
For GACGCTGCGC the value was 1.2.
In the case of GCAACGATTT, the switch fluorescence ratio was found to be 1.06.
For GTGGGAACGG the value was 1.02.
